Assay results taken from article PMC6919601, “Identification of Plasmodium dipeptidyl aminopeptidase allosteric inhibitors by high throughput screening” (PLoS ONE, 2019).
Among all 110,000 compounds or so, about 230 (0.21%) showed an effect of 50% or more. The list shows a part of the results.

Biological target: DPAP1 (Plasmodium falciparum, UniProt Q8IIJ9)
Test: primary screen, percent inhibition; read by cleavage of a fluorogenic dipeptide substrate; higher = more effect of the substance
Parameters: species or system P. falciparum D10 trophozoite lysates; single well
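Also: 30 min substrate incubation versus DMSO and 10 µM JCP410 controls.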

Sequence of DPAP1 (Q8IIJ9 whole entry, looked up): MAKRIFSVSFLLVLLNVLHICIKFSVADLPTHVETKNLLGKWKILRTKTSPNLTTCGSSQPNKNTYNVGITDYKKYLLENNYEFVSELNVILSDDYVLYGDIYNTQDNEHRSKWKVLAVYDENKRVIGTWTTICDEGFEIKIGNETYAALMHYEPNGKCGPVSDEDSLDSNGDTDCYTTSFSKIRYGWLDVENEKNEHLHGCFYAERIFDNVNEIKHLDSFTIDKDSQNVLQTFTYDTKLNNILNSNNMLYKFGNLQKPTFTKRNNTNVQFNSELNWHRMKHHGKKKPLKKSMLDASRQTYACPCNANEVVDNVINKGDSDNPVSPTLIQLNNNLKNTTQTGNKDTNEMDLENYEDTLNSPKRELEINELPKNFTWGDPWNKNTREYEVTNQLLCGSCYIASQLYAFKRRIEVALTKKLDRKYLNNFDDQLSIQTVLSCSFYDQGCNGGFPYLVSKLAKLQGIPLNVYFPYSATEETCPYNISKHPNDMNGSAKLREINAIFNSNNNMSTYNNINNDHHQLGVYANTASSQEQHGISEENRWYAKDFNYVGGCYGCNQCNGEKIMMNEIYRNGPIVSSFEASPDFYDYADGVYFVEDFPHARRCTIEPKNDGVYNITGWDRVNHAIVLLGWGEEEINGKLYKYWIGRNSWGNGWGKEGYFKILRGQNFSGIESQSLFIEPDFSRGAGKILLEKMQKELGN

SMILES	% Inhibition @ 10 uM [%]
COc1ccc(/C=C/C(=O)NCC2(c3ccccc3)CCCC2)cc1OC	2.3
CNC(=S)/N=C(\Nc1ccc(C)cc1)c1ccccc1	-4.06
Cc1ccc(-n2ncc(C(=O)Nc3ccccn3)c2C2CCN(C(=O)OC(C)(C)C)CC2)cc1C	6.05
CCOC(=O)N1CCN(C(=O)CSc2cn(Cc3ccccc3Cl)c3ccccc23)CC1	-6.85
COc1ccc(CN2CCN(Cc3ccccc3)CC2)cc1C	-1.86
NC(=O)C1CCCN(CC2CCCCC2)C1 (centres unmarked)	-2.24
COc1ccc(-c2noc(CN(C(=O)C(C)(C)C)C(C)C)n2)cc1	-5.58
Cc1ccc(C(=O)Nc2cc3ccccc3oc2=O)cc1	-4.5
CCOc1ccc(-c2oc3cc(Cl)ccc3c(=O)c2O)cc1OCC	-1.17
CC(C)OCCCNC(=O)CN1N=C(c2ccccc2)CCC1=O	2.18
N#CCNC(=O)[C@H](Cc1ccc(OCc2ccccc2)cc1)NC(=O)OCc1ccccc1	1.71
O=C(NCc1ccc(F)cc1)N1CCC(CN2CCOCC2)CC1	3.24
CCOc1cccc(C2C(C(=O)c3ccc(F)cc3)=C(O)C(=O)N2Cc2cccnc2)c1 (centres unmarked)	-4.39
CC(C)CNCC1COc2ccccc2O1 (centres unmarked)	-1.69
O=S(=O)(NCCSCc1ccccc1Cl)c1ccc(Br)s1	5.64
Cc1nc(O)c2c(n1)OC(N)=C(C#N)C2c1cccc(F)c1 (centres unmarked)	-2.54
O=C(CCc1nnc2n(Cc3ccc(Cl)cc3)c(=O)c3ccccc3n12)NCCC1=CCCCC1	4.16
Cc1ccccc1C(=O)c1cccn1CC(=O)NCCN1CCOCC1	-7.8
C=C(C)CNC(=S)N1CCN(C(c2ccccc2)c2ccccc2)CC1	-5.41
O=C1CC(NCC2CCCO2)C(=O)N1c1ccc(F)cc1 (centres unmarked)	2.84
CCC(C)(C)/N=c1/c(-c2ccccc2)c(O)c1=O	2.51
COc1ccc(CNc2nc3c(S(=O)(=O)c4ccc(C)cc4C)nnn3c3ccccc23)cc1	-3.08

SMILES	% Inhibition @ 10 uM [%]
Cc1cc(S(=O)(=O)N2CCOCC2)ccc1/N=C/c1c(C)nn(-c2ccc(Cl)cc2)c1O	-0.413
CCOC(=O)N1CCN(C(=O)CSc2nnc(-c3ccc(C(C)(C)C)cc3)o2)CC1	-2.19
COc1cc(C(=O)Nc2ccc(S(=O)(=O)Nc3ccc(F)cc3)cc2)cc(OC)c1OC	2.93
CC(Cc1ccccc1)NC(=O)c1ccc(N)cc1 (centres unmarked)	-0.0494
CCc1ccc(/C=C2\C(=O)NC(C)=C2C(=O)OC)cc1	0.222
O=C(O)CC1C(=O)N=C2C=CC=CN21 (centres unmarked)	1.18
CC1CCCCN1C(=O)Nc1noc2c1COc1ccccc1-2 (centres unmarked)	-1.4
Cc1cc(C(F)F)nc2sc(C(=O)Nc3ccc(F)c(Cl)c3)c(N)c12	17.4
Fc1ccc(OCCSc2nc3ccccc3o2)cc1	6.79
O=C1OC(C2CCCCC2)=N/C1=C\c1cccc(Br)c1	6.86
Cc1ccc(-c2cc(=O)c3ccccc3o2)s1	-4.43
CC(C)CNC(=O)c1ccccc1NC(=O)c1ccc(N(C)S(C)(=O)=O)cc1	6.61
Cc1[nH]c2ccc(CN)cc2c1C	-1.47
CCOC(=O)c1c(C)[nH]c(C)c1S(=O)(=O)N1CCC(C(=O)N2CC=C(c3ccccc3)CC2)CC1	-4.36
CC1(C(=O)O)CCC(C(=O)Nc2ccc(F)cc2)C1(C)C (centres unmarked)	-5.96
CC1(OC(=O)C(F)(F)F)CCC(CC(NC(=O)c2ccccc2)C(=O)NCC#N)CC1 (centres unmarked)	-5.21
CCC(C)Nc1oc(/C=C/c2cccc(OC)c2)nc1C#N (centres unmarked)	-6.29
O=C(CN(c1ccc(F)cc1)S(=O)(=O)c1ccc2c(c1)OCCO2)Nc1ccccc1F	5.17
Cc1ccc(Cn2cc(CCC(=O)NC(C)C)c3ccccc32)cc1	-1.97
CC(C)CC(NC(=O)c1cccc(O)c1)C(=O)NCC#N (centres unmarked)	0.744
CCCCN(C)C(=O)Cn1ncc2c1-c1cc(C)ccc1OC2	-4.01
COc1cc(NS(=O)(=O)c2ccccc2)c(OC)cc1N	-1.38

SMILES	% Inhibition @ 10 uM [%]
OC12CC3CC(C1)C(Nc1ccccc1)C(C3)C2 (centres unmarked)	-0.582
CC(C)c1c(Cl)c(O)c(-c2ccccc2)c(=O)n1-c1ccc(F)cc1	0.674
CCCCC1(O)CC(C)(C)N(O)C(C)(C)C1	2.45
COc1ccc(C(=O)NCc2ccco2)cc1S(=O)(=O)N1CCOCC1	-6.48
Nc1cn(C2OC(CO)C(O)C(O)C2O)c(=O)[nH]c1=O (centres unmarked)	-1.37
COc1cccc(C(=O)Nc2ccncc2)c1OC	1.61
CCCOc1ccc(C2C3=C(O)CC(C)(C)CC3=NC(C)=C2C(=O)Nc2ccccc2OC)cc1 (centres unmarked)	-0.864
OC(Cc1nc2ccccc2[nH]1)(c1ccccc1)c1ccccc1	-5.82
COc1ccc(C2C(C(=O)c3ccc(Cl)cc3)=C(O)C(=O)N2c2nc(C)c(C)s2)cc1OC (centres unmarked)	-9.13
O=C1C2C(c3ccccc3)C=CC(c3ccccc3)C2C(=O)N1C1CCCCC1 (centres unmarked)	-7.18
N=c1sccn1CC(=O)c1cccs1	-0.836
Fc1ccc(N2CCN(Cc3c(Cl)cccc3Cl)CC2)cc1	-5.42
COc1ccc(C2CC(O)=C/C(=N/c3ccccc3N)C2)cc1OC (centres unmarked)	-2.68
CC(C)CCNC(=O)C1CCC(=O)N1CCc1ccccc1 (centres unmarked)	-1.79
COc1ccc(NC(=O)c2ccc(-c3cccc(Cl)c3)o2)cc1OC	-1.98
COc1cc(CNCCc2ccccc2)ccc1O	-4.12
CC(C)NC(=O)CN(C)S(=O)(=O)c1ccc(F)cc1	0.815
O=C1CC(N2CCSCC2)C(=O)N1c1cccc(Br)c1 (centres unmarked)	-2.16
CC(=O)NCCCC[C@H](NC(=O)[C@H](CC(C)C)NC(=O)c1ccc(-c2cnc(N=C(N)N)s2)cc1)C(=O)O	-3.04
C=CCN(CC=C)C(=O)Nc1cccc(Cl)c1	-5.41
N#C/C(=C\c1ccccc1[N+](=O)[O-])c1nc(-c2ccccc2)cs1	-5.65
